Laboratory results as given in the supplement of paper PMC10126150.
Values marked as one replicate rest on one cluster of the flow cell; about a third of the high ones do not repeat.

Tested on: ATP
Assay: switch fluorescence ratio, 500 uM ATP over buffer (Cy3 cluster intensity, sum of 5 cycles each) (fold (ratio)); higher = stronger signal-on switching upon ATP binding; sequences stand for … in TCGTCGGCAGCGTCAGATGTGTATAAGAGACAGTTTTTTTTTTTTTTTTTTTTTTTTT…TC
Conditions: aptamer strand: ATP DNA aptamer (quencher-CACCTGGGGGAGTATTGCGGAGGAAGG + anchor), 100 nM annealed; ATP concentration: 500 uM; one replicate
How it was run: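 Clusters with intensities outside 100-1000 RFU were excluded. The remaining Cy3-labelled switching-strand clusters on a modified Illumina MiSeq flow-cell had been annealed to 100 nM quencher-labelled ATP aptamer and imaged in selection buffer, then after 15 min with 500 uM ATP at 22 °C, for five cycles separated by NaOH stripping and re-annealing. The fluorescence ratio, averaged per switch-domain sequence, is each cluster's summed target-cycle Cy3 intensity over its summed buffer-cycle Cy3 intensity.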
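Note: ATP exposure 15 min at 22 °C before imaging.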

| Sequence | switch fluorescence ratio |
| --- | --- |
| TTGATATTTA | 0.966 |
| GAACTAATGG | 0.998 |
| CAGCTGGACA | 1.03 |
| GACACCGAAC | 1.7 |
| AGATTACTGG | 1.03 |
| AGTCTATGAT | 0.987 |
| AATAGCTCAT | 1.02 |
| CATCAGTCCG | 0.848 |
| GCTATGATT | 0.987 |
| CCTTTAACGA | 1.06 |
| AATCAGTATT | 1.01 |
| ACATGGCTCC | 1.1 |
| TATGGGCGGT | 0.997 |
| AAAAAGCAAT | 1.28 |
| GCTCAATTTT | 1.02 |
| ATGATTGGGC | 0.967 |
| AAATTTATTC | 0.985 |
| AGCTCCGGGA | 1.01 |
| TGGGTCCTGA | 1.05 |
| TATGTTACGT | 1.05 |
| CAACACAGCG | 1.04 |
| GCCGTACAGA | 0.996 |
| CATGTGAGAT | 0.983 |
| TCCATTGACC | 1.08 |
| TATATCATTA | 0.974 |

| Sequence | switch fluorescence ratio |
| --- | --- |
| TAATCGCGA | 1.02 |
| GATAGTTTGC | 1.01 |
| TGTTACGGT | 1.01 |
| CGTGGCGGTG | 0.955 |
| TACTATCAGA | 0.987 |
| GGACTTTG | 0.97 |
| GTTTGGTAAG | 0.962 |
| GCCCCTACGA | 1.07 |
| GGTACGATCA | 1.05 |
| CTATAATAGT | 1.03 |
| ACGGAAAAGG | 1.06 |
| CGAATGCTTG | 0.968 |
| GTGGGTGGGC | 0.974 |
| CGGTTTAAGG | 1.03 |
| CCGGGTCCCA | 1.1 |
| CCGCCTCAAG | 4.1 |
| CAGGGTCCGG | 1.03 |
| ATAAGCTGTG | 0.967 |
| CCGGCCGGCG | 1.02 |
| CGATAAGAAT | 1.03 |
| AAACACTCGG | 1 |
| GCTTGAAAGG | 1.02 |
| CTCGGGTTAG | 0.971 |
| CAGCGTTATG | 0.999 |
| CATTGGAGCC | 0.956 |

| Sequence | switch fluorescence ratio |
| --- | --- |
| AGAAGGCTGA | 0.987 |
| GTTATTGCCA | 0.998 |
| GTGGAGGCCT | 1 |
| CAATCAAGGT | 0.971 |
| GGTGAACGAT | 1.01 |
| TTCGGAACAC | 1.78 |
| ATGTGTATTA | 1.04 |
| CCTGGTCTTA | 0.975 |
| AGTACAAGGA | 1.01 |
| GCATAGGT | 1.05 |
| GCCTGGTGTG | 1.13 |
| ATAAAACCAG | 0.986 |
| AATCTAATTC | 0.975 |
| GTTACTGTTT | 0.988 |
| GTTGGAATCA | 0.995 |
| TGCCATTACT | 1.05 |
| GGGTTCGGTC | 1.01 |
| AGTGGCGAAG | 0.978 |
| ATTTTAAAAA | 0.99 |
| TACTAACGA | 1.37 |
| TTGACTTAGA | 0.954 |
| GAAGTTAAAT | 1.01 |
| CAGATTAAC | 0.991 |
| GCTTGAGCTG | 1.02 |
| TGCCACCTG | 1.02 |

| Sequence | switch fluorescence ratio |
| --- | --- |
| ATAATCTCTG | 1.01 |
| TATAGACGTT | 0.957 |
| TGCGGTTTGC | 0.937 |
| AAAGCGAACT | 1.04 |
| CCCCTTTCCC | 1.05 |
| AATTAACGTC | 1.02 |
| TAATGTACCC | 1.14 |
| AGTCGACAGA | 1.06 |
| ATTTATTTGG | 1 |
| ATACCACACA | 1.4 |
| GGTACCGGTT | 1.03 |
| CACGTCATGG | 1.21 |
| TGCGCTGACT | 1.03 |
| CCAATTGTGA | 0.98 |
| TCGGCGACGA | 0.971 |
| GAATTGTCCG | 1.03 |
| CAGCGTACGA | 1.08 |
| GTTTCCCCGC | 3.82 |
| TCTCAGTGTG | 2.57 |
| AAGTTTCTGT | 0.943 |
| ATCTTATGTA | 0.992 |
| GGGCCACTAG | 1.02 |
| AATGAAGGA | 1.01 |
| CACACAATAT | 1.35 |
| CGTATGTGAG | 0.888 |

| Sequence | switch fluorescence ratio |
| --- | --- |
| AGAACAACCC | 1.05 |
| TGAAGAAGGG | 0.999 |
| CTGGAAGCGT | 1.04 |
| AGAAAACGAC | 0.998 |
| CTAGGGTGCG | 0.968 |
| TGAACCGATT | 0.985 |
| GAAACTTTTG | 1 |
| CCCATTTCTT | 0.982 |
| TATCCAGATA | 0.974 |
| ACTAATTGTG | 0.979 |
| AACTAGTTAT | 1.01 |
| AGAGTACTTC | 1.02 |
| AACCTAGATG | 1.03 |
| GGGTCTCCTT | 1.09 |
| TTTATGACTG | 0.948 |
| TTTTTGTCTC | 1 |
| CGCGAAACTC | 1.47 |
| TTTCCTTCAG | 1.05 |
| TCAGCACTAG | 1.28 |
| CATACGGTCG | 1.06 |
| CTAAATAGTA | 1.01 |
| GCAGAGACGT | 1.01 |
| GAGAGGGA | 1.08 |
| CGCAACGTTT | 1.31 |
| AACTTCCGGG | 1.98 |

| Sequence | switch fluorescence ratio |
| --- | --- |
| GCCTACGGTC | 1.04 |
| GCTACAACGG | 1.07 |
| GAGGGAAGTG | 0.974 |
| TGACGGGATC | 1.36 |
| AGGAAAGGGG | 0.993 |
| GCGGCCAGAG | 1.01 |
| ATAGAGGTGT | 1.12 |
| CGTTCTAATA | 1.01 |
| AATATGGATT | 0.936 |
| AGCGGGCAAT | 1.31 |
| CGATCCGATG | 1.02 |
| GCGTGAATAC | 5.39 |
| TTAGCTAAGT | 0.987 |
| TGAGTTTGTA | 0.935 |
| TGGGCTATAT | 0.951 |
| TGTTCTCGAT | 1.06 |
| TCCAAAATAA | 1.07 |
| TACAGATATC | 0.972 |
| AAAGCTATGT | 0.969 |
| TAGCGCCGTT | 1.05 |
| GAAGCATGCC | 1.14 |
| GCGTCATCTA | 0.999 |
| CAGATGTCTA | 1.02 |
| TATATCTTGG | 1.04 |
| CATGCATATG | 0.936 |

| Sequence | switch fluorescence ratio |
| --- | --- |
| ATGAGGGTTA | 1 |
| AAGTCACAAG | 1.02 |
| ACCCCCGGCA | 1.07 |
| CATTGCGGAG | 1.02 |
| AGTTGTCCCA | 1.04 |
| ATCGTCTATC | 1.01 |
| GCCAGACACA | 1.03 |
| GGCCCCATCC | 1.13 |
| ATGTTTGGTT | 0.979 |
| ACTGTCCGAA | 0.991 |
| TAGTTTCACT | 1.03 |
| TTCAGCGGAA | 1.04 |
| CACTACACAA | 1.27 |
| TAGACACTGT | 1.01 |
| TGTGTGTTAA | 0.965 |
| TGTTATTATG | 0.995 |
| CGCCTTTGTT | 0.996 |
| TTGGCGCTAT | 0.988 |
| ACAGTTTGGG | 1.03 |
| ATGAAGGTCG | 1.02 |
| AGCCGCTCCC | 2.02 |
| TCTGGGCACG | 1.04 |
| TTTAAGGCGA | 1.01 |
| TGGCCCCCAC | 1.06 |
| CTTTTCGGAA | 1.06 |

| Sequence | switch fluorescence ratio |
| --- | --- |
| TTTCTGAATA | 1.02 |
| AGATCCGCGT | 1.18 |
| TGCGAGCTGG | 0.958 |
| CTTTCATGTA | 1.05 |
| ATGCTTGGTA | 1.03 |
| CAAGCAACGT | 0.975 |
| CCCCGACGAT | 2.47 |
| GAATTTCCGA | 1.05 |
| TTGGACACA | 1.05 |
| ATCAAATTTT | 0.977 |
| CCTGCTACG | 1.06 |
| GCTCAGGGGC | 1.11 |
| ATAGGTCATG | 0.993 |
| GACGGTATTA | 1.1 |
| CGATGACCA | 0.985 |
| CAAGGTGCGC | 0.989 |
| TGGATCGGGA | 1.02 |
| TTGCATAACG | 1.02 |
| GTTTCTGTGA | 0.977 |
| TTAATGACGT | 1.03 |
| TAGTAGGGTC | 0.989 |
| CGGTAGAAAT | 1.02 |
| GGGACTTGTA | 0.995 |
| GAGGGTGTC | 0.975 |
| TAGCGACTAA | 1 |
